Measurements from patent publication US9351960B2 (priority 2012, dated 2016).
Like-named read-outs stand apart in the source and are kept apart here.

System: cytopathogenic hepatitis C virus (HCV) strain of genotype 1b
Details: for HCV titers (lg TCID50 for SPEV cell cultures) in medium samples derived from FEC cultures: Day 2; for HCV titers (lg TCID50 for SPEV cell cultures) in medium samples derived from FEC cultures / decrease of HCV titers: FEC

## O=C(O)CCCC(=O)NCCc1c[nH]cn1 [glutaryl histamine]
0.005 μg/mL, treatment 24 hours after infection
  HCV titers (lg TCID50 for SPEV cell cultures) in medium samples derived from FEC cultures: 0 lg TCID50
0.005 μg/mL, treatment 24 hours before infection
  HCV titers (lg TCID50 for SPEV cell cultures) in medium samples derived from FEC cultures: 5.0 lg TCID50
0.005 μg/mL, treatment at the time of infection
  HCV titers (lg TCID50 for SPEV cell cultures) in medium samples derived from FEC cultures: 5.5 lg TCID50
0.05 μg/mL, treatment 24 hours after infection
  HCV titers (lg TCID50 for SPEV cell cultures) in medium samples derived from FEC cultures: 1.8 lg TCID50
0.05 μg/mL, treatment 24 hours before infection
  HCV titers (lg TCID50 for SPEV cell cultures) in medium samples derived from FEC cultures: 4.5 lg TCID50
0.05 μg/mL, treatment at the time of infection
  HCV titers (lg TCID50 for SPEV cell cultures) in medium samples derived from FEC cultures: 5.0 lg TCID50
0.5 μg/mL, treatment 24 hours after infection
  HCV titers (lg TCID50 for SPEV cell cultures) in medium samples derived from FEC cultures: 0 lg TCID50
0.5 μg/mL, treatment 24 hours before infection
  HCV titers (lg TCID50 for SPEV cell cultures) in medium samples derived from FEC cultures: 4.5 lg TCID50
0.5 μg/mL, treatment at the time of infection
  HCV titers (lg TCID50 for SPEV cell cultures) in medium samples derived from FEC cultures: 6.0 lg TCID50
5.0 μg/mL, treatment 24 hours after infection
  HCV titers (lg TCID50 for SPEV cell cultures) in medium samples derived from FEC cultures: 0 lg TCID50
5.0 μg/mL, treatment 24 hours before infection
  HCV titers (lg TCID50 for SPEV cell cultures) in medium samples derived from FEC cultures: 4.5 lg TCID50
5.0 μg/mL, treatment at the time of infection
  HCV titers (lg TCID50 for SPEV cell cultures) in medium samples derived from FEC cultures: 6.5 lg TCID50
50.0 μg/mL, treatment 24 hours after infection
  HCV titers (lg TCID50 for SPEV cell cultures) in medium samples derived from FEC cultures: 2.5 lg TCID50
50.0 μg/mL, treatment 24 hours before infection
  HCV titers (lg TCID50 for SPEV cell cultures) in medium samples derived from FEC cultures: 4.5 lg TCID50
50.0 μg/mL, treatment at the time of infection
  HCV titers (lg TCID50 for SPEV cell cultures) in medium samples derived from FEC cultures: 6.2 lg TCID50
500.0 μg/mL, treatment 24 hours after infection
  HCV titers (lg TCID50 for SPEV cell cultures) in medium samples derived from FEC cultures: 0 lg TCID50
500.0 μg/mL, treatment 24 hours before infection
  HCV titers (lg TCID50 for SPEV cell cultures) in medium samples derived from FEC cultures: 4.5 lg TCID50
500.0 μg/mL, treatment at the time of infection
  HCV titers (lg TCID50 for SPEV cell cultures) in medium samples derived from FEC cultures: 5.5 lg TCID50
Cells treated 24 hours before infection
  decrease of HCV titers: 2.0 lg
Introduced immediately after infection
  decrease of HCV titers: 1.0-1.5 lg
Added 24 hours after infection, culture fluid derived 48 hours after infection
  infectious activity of HCV in the FEC cultures: completely suppressed
